# In PMC6919601, “Identification of Plasmodium dipeptidyl aminopeptidase allosteric inhibitors by high throughput screening” (PLoS ONE, 2019):
# Out of some 110,000 compounds screened, about 230 (0.21%) showed an effect of 50% or more. The list shows a part of the results.
# Biological target: DPAP1 (Plasmodium falciparum, UniProt Q8IIJ9)
# Experiment: primary screen, percent inhibition; read by cleavage of a fluorogenic dipeptide substrate; higher = more effect of the substance
# Design: species or system P. falciparum D10 trophozoite lysates; single well
# 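Further: 30 min substrate incubation versus DMSO and 10 µM JCP410 controls.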
# DPAP1, sequence (Q8IIJ9 whole entry, looked up): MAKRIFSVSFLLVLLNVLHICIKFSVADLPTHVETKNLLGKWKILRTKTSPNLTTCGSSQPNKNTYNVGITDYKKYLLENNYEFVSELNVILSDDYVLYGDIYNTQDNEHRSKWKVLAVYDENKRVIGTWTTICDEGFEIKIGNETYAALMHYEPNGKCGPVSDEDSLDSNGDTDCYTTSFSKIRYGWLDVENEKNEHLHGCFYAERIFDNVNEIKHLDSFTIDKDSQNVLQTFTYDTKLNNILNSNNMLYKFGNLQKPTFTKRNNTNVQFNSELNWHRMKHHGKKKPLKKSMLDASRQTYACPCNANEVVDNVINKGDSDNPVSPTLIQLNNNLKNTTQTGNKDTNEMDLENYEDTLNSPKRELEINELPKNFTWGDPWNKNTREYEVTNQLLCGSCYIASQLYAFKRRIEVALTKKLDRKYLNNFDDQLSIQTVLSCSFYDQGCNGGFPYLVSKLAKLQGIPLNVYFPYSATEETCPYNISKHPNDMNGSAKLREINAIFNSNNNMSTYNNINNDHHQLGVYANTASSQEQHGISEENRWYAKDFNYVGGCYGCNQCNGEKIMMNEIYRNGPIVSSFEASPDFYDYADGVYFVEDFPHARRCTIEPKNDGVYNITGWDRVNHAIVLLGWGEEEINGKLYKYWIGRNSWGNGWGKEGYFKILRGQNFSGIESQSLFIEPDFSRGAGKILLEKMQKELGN
row,Structure (SMILES),% Inhibition @ 10 uM [%]
1,CC(C)CCNC(=O)CN1CCN(Cc2ccc(F)cc2Cl)C1=O,-4.53
2,COc1ccc(CNC(=O)CCN2C(=O)C3C4C=CC(CC4)C3C2=O)cc1 (centres unmarked),8.84
3,Cc1cccc(NC(=O)CN2C(=O)N/C(=C/c3cc(C)n(-c4ccncc4)c3C)C2=O)c1,14.8
4,CCOC(=O)c1sc2nc3c(cc2c1N)COC(C)(CC)C3 (centres unmarked),9.55
5,CCOc1ccc(C2c3c(oc4ccccc4c3=O)C(=O)N2c2nc(C)c(C)s2)cc1 (centres unmarked),-1.86
6,Cc1ccc(N2C(=O)c3cccc([N+](=O)[O-])c3C2=O)cc1,-6.52
7,O=C(Nc1nccs1)c1ccc(COc2ccccc2Cl)o1,-5.98
8,c1ccc(-c2noc(CSc3nnc(COc4ccc5c(c4)OCO5)n3-c3ccccc3)n2)cc1,-3.75
9,O=C(NCCCN1CCOCC1)c1cccc(F)c1,-7.45
10,Oc1ccc(CN2CCN(C/C=C/c3ccccc3)CC2)cc1,-1.07
11,O=C(COc1ccc(S(=O)(=O)NC2CCCCC2)cc1)NCc1ccc(Cl)cc1,0.64
12,Cc1nc2ccccc2nc1N1CCN(C)CC1,-0.711
13,CC(C1CC1)N(C(=O)c1ccc(NC(=O)Nc2ccccc2Cl)cc1)c1ccccc1 (centres unmarked),-1.15
14,CC(=O)C1=C(O)C(=O)N(CC#N)C1c1cccnc1 (centres unmarked),0.83
15,CCCC1=C(C(=O)OCC)C(c2ccc(Cl)cc2)C(C#N)=C(N)O1 (centres unmarked),-0.197
16,CCOc1cc(/C=C2\C(=O)N(CCC3=CCCCC3)C(C)=C2C(=O)OC)ccc1O,0.222
17,Cc1cc(C)n(CC(O)CN2c3ccccc3Sc3ccccc32)n1 (centres unmarked),3.72
18,CCN1CCN(C(c2cccs2)C(C)NC(=O)c2ccc3c(c2)OCO3)CC1 (centres unmarked),-2.88
19,O=c1/c(=C/c2ccccc2F)sc2nc3ccccc3n12,5.98
20,CC(C)NC(=O)c1ccc(-n2c(-c3ccccc3)nc3cccnc32)cc1,0.775
21,Cc1nn(CCCC(=O)NC2CCCc3ccccc32)c(=O)c2nccn12 (centres unmarked),0.0882
22,O=C(O)c1ccccc1C(=O)Nc1ccc(S(=O)(=O)N2CCCCC2)cc1,-1.04
23,COc1cc(C2CC(=O)NC3=C2C(=O)CC(c2ccccc2Cl)C3)cc(Br)c1O (centres unmarked),8.96
24,COc1ccccc1-c1nc2s/c(=C\c3ccccc3Cl)c(=O)n2n1,-8.79
25,Clc1ccc(OCCCN2CCCCC2)cc1,-3.15

row,Structure (SMILES),% Inhibition @ 10 uM [%]
1,CCOC(=O)c1c(C)n(C)c2ccc(OCC(O)CNCc3ccco3)cc12 (centres unmarked),-3.13
2,CCc1[nH]nc2c1C(c1cccc(Cl)c1)C(C#N)=C(N)O2 (centres unmarked),-3.46
3,CCOC(=O)C1=C(CS(=O)(=O)c2ccc(C)c(C)c2)NC(=O)NC1c1ccccc1OC (centres unmarked),5.92
4,CCN(c1ccccc1)S(=O)(=O)c1ccc(NC(=O)Cc2ccccc2)cc1,2.01
5,Cc1nonc1NC(=O)c1oc2ccc(F)cc2c1C,-3.24
6,COc1cccc(C(=O)NC(C)c2ccc3c(c2)OCCCO3)c1 (centres unmarked),5.39
7,O=C(Cn1ncc2ccsc2c1=O)NCCN1CCN(Cc2ccccc2)CC1,5.09
8,COc1cc(OC)cc(C(=O)NCc2ccc(Cl)c(Cl)c2)c1,-5.13
9,Cc1ccc(-c2nc(C#N)c(NCCCN(C)C)o2)cc1,0.315
10,O=C(Cc1ccc(F)cc1)NCc1nc2ccccc2[nH]1,-2.79
11,NC(=O)c1c(NC(=O)CCn2cnc3ccccc3c2=O)sc2c1CCCC2,-7.46
12,CCOC(=O)C1=C(CS(=O)(=O)c2ccc(Cl)cc2)NC(=O)NC1c1ccc(OCC)cc1 (centres unmarked),5.92
13,CC(=O)c1ccc(-c2ccc(/C=c3\sc4nc(-c5ccccc5)nn4c3=O)o2)cc1,3.54
14,CCCNC(=O)CCC(=O)n1ncc2ccc(Cl)cc21,3.84
15,Cc1cc(NC(=O)c2cccnc2)n(Cc2cccc3ccccc23)n1,-1.24
16,O=C(NCCc1ccccc1)c1cccs1,-2.15
17,Cc1ccc(C)[n+](CC(=O)N2CCCCC2)c1,5.31
18,CCc1ccc(C(=O)c2cnc3ccccc3c2O)cc1,6.64
19,CC(NC(=O)Cn1ncn2c(cc3cc(F)ccc32)c1=O)c1ccc2c(c1)OCCO2 (centres unmarked),1.68
20,COc1ccc(CCNC2CCCCC2C)cc1OC (centres unmarked),2.78
21,CSc1nn(-c2ccccc2)c2nc(C)c(C(C)=O)c(N)c12,-3.65
22,CCCC[C@@H](/C=C/S(=O)(=O)c1ccccc1)NC(=O)[C@H](Cc1cc(I)c(O)c(I)c1)NC(=O)OC(C)(C)C,-8.26
23,O=C(CSc1nc2cccnc2[nH]1)Nc1ccc(OC(F)(F)Cl)cc1,-0.297
24,CS(=O)(=O)n1nc(-c2ccco2)nc1NCc1ccc(Cl)cc1,-5.31
25,CCCN1CN=C(Nc2nc(C)c3ccc(C)cc3n2)NC1,2.1
